Data taken from PubChem BioAssay AID995 (National Center for Advancing Translational Sciences (NCATS), 2007).
The campaign covered roughly 72,000 compounds. About 710 (0.99%) were called active. This list was built around the results that the source calls inconclusive (neither active nor inactive); the mix of calls is not that of the screen. The call rests on the fitted dose curve; in most records, active means well fitted inhibition curve with a large enough effect; inconclusive means small, poorly fitted or top-dose-only effect; inactive means no such curve, though single readings can be large or run the other way. Potencies of inconclusive entries are left out as doubtful fits.
On the % scale 0 is the no-effect control and ±100 the full control effect; potency means the concentration at half of the fitted maximal effect; tags describe the fitted curve by direction and shape.

Assay: qHTS Assay for Inhibitors of the ERK Signaling Pathway using a Homogeneous Screening Assay; further: nearly all actives have a fitted effect of over 55% in size
Details: HEK293-V1b, vasopressin-stimulated pERK AlphaScreen; activity, negative = inhibition: at 57.5 µM (top of the series) unless noted
Outline: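 HEK293 cells stably expressing V1b receptor, seeded overnight in 1% FBS, were treated with compounds for 30 min at 37C, then stimulated 5 min with 25 nM vasopressin; phospho-ERK read by AlphaScreen SureFire after lysis.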
In the case of COc1ccc2[nH]cc(CCNc3ncncc3-c3ccoc3)c2c1, the Potency is reported as inconclusive [inhibitor, single point]. For OCC1OC(c2ccc3c(c2)OCO3)C=CC1Oc1cc(Cl)cc(Cl)c1 (stereo not given), the activity, negative = inhibition was inactive: 12.2% [at 11.5 µM]. For CN(Cc1ccccc1)c1nc2c(c(=O)[nH]c(=O)n2C)n1Cc1ccccc1, the Potency was inconclusive [inhibitor, full curve, poor fit]. For Cc1nc(Nc2nc(-c3ccccc3)cc(=O)[nH]2)nc2ccccc12, the Potency was inconclusive [inhibitor, partial curve]. For COc1ccc(C2CC(C(F)(F)F)n3nc(C(=O)NCCCn4ccnc4)cc3N2)cc1OC (stereo not given), the Potency was inconclusive [inhibitor, partial curve]. With COc1ccc2oc(-c3ccc(O)cc3)cc(=O)c2c1 the Potency was active: 39.8 µM. In the case of COc1ccc(OC)c(Nc2nc(-c3sc(C)nc3C)cs2)c1, the Potency is reported as inconclusive [inhibitor, single point]. For CCOc1ccc(-c2n[nH]c(C)c2Oc2ccc(OC)cc2)c(O)c1, the Potency was active: 39.8 µM. For CCOC(=O)CNC(=O)CSc1nc2cccnc2n1C1CCCCC1, the Potency was inconclusive [inhibitor, partial curve]. With O=C(C1CCN(S(=O)(=O)c2cccc3cccnc23)CC1)N1CC=C(c2ccccc2)CC1 the Potency was active: 25.1 µM. For O=C(c1ccc2nc(-c3ccco3)c(-c3ccco3)nc2c1)N1CCN(c2ccccc2)CC1, the Potency was inconclusive [inhibitor, partial curve]. For COC(=O)c1ccc(NC(=O)CN(C2CCCCC2)S(C)(=O)=O)cc1, the Potency was inconclusive [inhibitor, partial curve]. For COc1ccc(OC)c(N=c2oc3cc(O)ccc3cc2C(N)=O)c1, the Potency was inconclusive [inhibitor, partial curve]. For COc1ccccc1-c1nccc(NCc2cccc(C)c2)n1, the Potency was “inactive”. With CCCn1c(C)nc2c(c1=O)c1nc3ccccc3nc1n2CCc1ccccc1 the Potency was “inactive”. With O=C(CCCNS(=O)(=O)c1cccs1)N1CCN(c2ccc(F)cc2)CC1 the Potency was inconclusive [inhibitor, partial curve]. For O=C(Cn1cc2c(n1)CCCC2)NCCCN1CCN(c2ccccc2F)CC1, the Potency was “inactive”. For COCCNC(=O)Nc1ccc2c(c1)N(C)C(=O)CS2, the Potency was inconclusive [inhibitor, single point]. With COc1ncc2nc(-c3cccc(C#N)c3)c(=O)n(CCC#N)c2n1 the Potency was inconclusive [inhibitor, single point]. In the case of CCN(CC)c1nc(C#N)nc(N(CC)CC)n1, the Potency is reported as “inactive”. In the case of C=CCNc1oc(-c2ccc(OCC)cc2)nc1C#N, the Potency is reported as inconclusive [inhibitor, single point]. In the case of O=S(=O)(Nc1ccc2c(c1)OCO2)c1ccc(Br)s1, the Potency is reported as inconclusive [inhibitor, single point]. With Cn1c(SCC(=O)OC2CCCCC2)nnc1-c1ccc(S(=O)(=O)N2CCCC2)cc1 the Potency was inconclusive [inhibitor, single point]. For CCOC(=O)c1ccc(NCc2ccc3c(c2)OCO3)cc1, the Potency was “inactive”. With Cc1ccc(C2CC(C(F)(F)F)n3ncc(C(=O)NCc4ccco4)c3N2)cc1 (stereo not given) the Potency was inconclusive [inhibitor, single point]. In the case of CCOC(=O)C1CCN(S(=O)(=O)c2cccc(-c3cn4ccccc4n3)c2)CC1, the Potency is reported as inconclusive [inhibitor, single point]. For CCc1nc(SCC(=O)N2CCN(C(=O)c3ccco3)CC2)c2c3c(sc2n1)CCCC3, the Potency was active: 20 µM. In the case of Cc1nn(-c2ccccc2)c(C)c1C(=O)OCC(=O)c1c(N)n(CC(C)C)c(=O)n(C)c1=O, the Potency is reported as inconclusive [inhibitor, partial curve]. For C=CCn1c(SCc2ccc(Cl)cc2)nc2c1c(=O)[nH]c(=O)n2C, the Potency was “inactive”. With O=C(O)c1ccc(OCc2occc2C(=O)O)cc1 the Potency was “inactive”. For CN(CC(=O)Nc1nc2ccccc2s1)S(=O)(=O)c1ccccc1, the Potency was inconclusive [inhibitor, single point]. In the case of COc1ccc(C(=O)Nc2ccc(-c3ccc(C)o3)cc2)cc1S(=O)(=O)N1CCOCC1, the Potency is reported as active: 2 µM. With COc1ccc(C2CC(=O)C3=C(C2)NC(C)=C(C#N)C3c2ccc(N(C)C)cc2)cc1 (stereo not given) the Potency was inconclusive [inhibitor, partial curve]. For CC12CC(NC(=O)N1c1cccc(C(=O)NCc3ccc4c(c3)OCO4)c1)c1cc(Cl)ccc1O2 (stereo not given), the Potency was inconclusive [inhibitor, partial curve]. In the case of c1csc(CCNc2ncnc3sc4c(c23)CCC4)c1, the Potency is reported as inconclusive [inhibitor, single point]. For CN(c1ccc(O)cc1)c1nc(-c2ccccc2)cs1, the Potency was “inactive”. For CCNc1nc(N)nc(Oc2ccc(OCCOc3ccc(Cl)cc3Cl)nn2)n1, the Potency was inconclusive [inhibitor, partial curve, poor fit]. In the case of CSC1=C(C#N)C(c2cccc(Br)c2)CC(=O)N1 (stereo not given), the Potency is reported as active: 20 µM. For CCOc1ccc(CCNC(=O)c2oc3c(c2C)-c2[nH]ncc2CC3)cc1OCC, the Potency was inconclusive [inhibitor, partial curve]. For CCOc1cccc2c1OC1(C)CC2NC(=O)N1c1cccc(F)c1 (stereo not given), the Potency was inconclusive [inhibitor, partial curve]. In the case of COc1cccc(-c2cc(C(=O)Nc3cccc(O)c3)no2)c1, the Potency is reported as “inactive”. In the case of Cc1ccc(NC2c3ncccc3C(=O)N2c2ccccc2C)cc1C (stereo not given), the Potency is reported as inconclusive [inhibitor, partial curve]. In the case of O=C(NC1CC1)c1cc2c(s1)-c1ccccc1OC2, the Potency is reported as inconclusive [inhibitor, single point]. For O=C(C1CCCN(c2ncccn2)C1)N1CCc2ccccc21 (stereo not given), the Potency was inconclusive [inhibitor, single point]. For CCN(CC)C(=O)c1csc(Nc2ccc(C)cc2)n1, the Potency was inconclusive [inhibitor, partial curve, poor fit].
